Data reported in US20220177589A1 (OXFORD UNIVERSITY INNOVATION, published 2022).

Target: T1, Human HVEM extracellular domain, fused to mouse IgG1 Fc (human; mouse, UniProt Q92956 39-202)
T1 construct: extracellular domain; also called human HVEM-mFc; herpesvirus entry mediator; not shown: mouse IgG1 Fc
T1 sequence (looked up): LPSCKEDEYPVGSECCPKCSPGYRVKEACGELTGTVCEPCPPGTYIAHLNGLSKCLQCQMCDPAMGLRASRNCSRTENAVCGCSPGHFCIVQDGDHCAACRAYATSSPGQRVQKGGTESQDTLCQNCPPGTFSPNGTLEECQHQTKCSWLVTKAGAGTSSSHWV
Experiment: SPR (Biacore T200), human BTLA extracellular domain amine-coupled to the chip, HVEM-mFc injected before and after a saturating antibody injection, 37 °C

binding result: binds
B1: monomeric soluble human BTLA extracellular domain (BTLA […]) (receptor)
chain: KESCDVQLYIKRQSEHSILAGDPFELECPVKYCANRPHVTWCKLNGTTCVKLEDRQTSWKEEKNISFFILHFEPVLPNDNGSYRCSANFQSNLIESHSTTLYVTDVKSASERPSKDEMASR
notes: monomeric; also called hBTLA; monomeric BTLA
